Laboratory results from the supplement of paper PMC12067093, “Discovery and optimisation of a covalent ligand for TRIM25 and its application to targeted protein ubiquitination” (Chemical Science, 2025).
About 21,000 targets were measured; listed, in parts, are those with the largest changes and a random draw of the rest.

Compound: Cc1cc(ccc1-c1ccccc1)C(=O)N1CCCN(CC1)C(=O)CCl [compound 10]
Assay: probe-labelled cysteine peptide fold change vs DMSO (competition) (log2 fold change); higher = less target engagement (more negative = stronger competition)
Conditions: 10 µM; THP-1; incubation time: 4 h
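Note: competitive profiling in live THP-1 cells: cysteine peptides tagged with an iodoacetamide desthiobiotin (IA-DTB) probe, intensity after compound treatment relative to DMSO-treated cells.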

Chain of UniProt Q6P1R4 (Q6P1R4 whole entry, looked up): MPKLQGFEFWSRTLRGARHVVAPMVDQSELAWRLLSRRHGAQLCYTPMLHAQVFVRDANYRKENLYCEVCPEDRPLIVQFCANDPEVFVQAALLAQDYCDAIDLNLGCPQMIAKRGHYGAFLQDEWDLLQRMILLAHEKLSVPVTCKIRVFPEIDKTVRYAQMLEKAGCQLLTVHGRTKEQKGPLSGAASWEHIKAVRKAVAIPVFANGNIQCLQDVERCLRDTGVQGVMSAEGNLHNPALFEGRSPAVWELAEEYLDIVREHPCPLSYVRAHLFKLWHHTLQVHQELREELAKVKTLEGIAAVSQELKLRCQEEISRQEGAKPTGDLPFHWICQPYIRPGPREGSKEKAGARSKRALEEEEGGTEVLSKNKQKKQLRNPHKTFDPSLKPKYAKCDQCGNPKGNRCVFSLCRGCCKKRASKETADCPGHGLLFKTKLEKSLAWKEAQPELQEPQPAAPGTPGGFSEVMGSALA
Chain of UniProt Q9NR50 (Q9NR50 whole entry, looked up): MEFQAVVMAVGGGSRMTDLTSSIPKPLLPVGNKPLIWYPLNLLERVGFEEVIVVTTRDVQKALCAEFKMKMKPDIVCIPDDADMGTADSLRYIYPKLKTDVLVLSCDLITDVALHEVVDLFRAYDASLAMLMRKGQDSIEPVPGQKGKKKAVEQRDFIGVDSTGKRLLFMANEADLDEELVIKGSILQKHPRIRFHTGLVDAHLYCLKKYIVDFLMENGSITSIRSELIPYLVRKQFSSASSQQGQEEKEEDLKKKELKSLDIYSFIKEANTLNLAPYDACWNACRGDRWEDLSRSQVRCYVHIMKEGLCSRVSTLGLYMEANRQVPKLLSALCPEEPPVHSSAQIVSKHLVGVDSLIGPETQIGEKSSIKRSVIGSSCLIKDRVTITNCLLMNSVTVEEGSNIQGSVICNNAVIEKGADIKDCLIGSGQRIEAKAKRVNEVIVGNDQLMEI
Chain of UniProt P49327 (P49327 whole entry, looked up): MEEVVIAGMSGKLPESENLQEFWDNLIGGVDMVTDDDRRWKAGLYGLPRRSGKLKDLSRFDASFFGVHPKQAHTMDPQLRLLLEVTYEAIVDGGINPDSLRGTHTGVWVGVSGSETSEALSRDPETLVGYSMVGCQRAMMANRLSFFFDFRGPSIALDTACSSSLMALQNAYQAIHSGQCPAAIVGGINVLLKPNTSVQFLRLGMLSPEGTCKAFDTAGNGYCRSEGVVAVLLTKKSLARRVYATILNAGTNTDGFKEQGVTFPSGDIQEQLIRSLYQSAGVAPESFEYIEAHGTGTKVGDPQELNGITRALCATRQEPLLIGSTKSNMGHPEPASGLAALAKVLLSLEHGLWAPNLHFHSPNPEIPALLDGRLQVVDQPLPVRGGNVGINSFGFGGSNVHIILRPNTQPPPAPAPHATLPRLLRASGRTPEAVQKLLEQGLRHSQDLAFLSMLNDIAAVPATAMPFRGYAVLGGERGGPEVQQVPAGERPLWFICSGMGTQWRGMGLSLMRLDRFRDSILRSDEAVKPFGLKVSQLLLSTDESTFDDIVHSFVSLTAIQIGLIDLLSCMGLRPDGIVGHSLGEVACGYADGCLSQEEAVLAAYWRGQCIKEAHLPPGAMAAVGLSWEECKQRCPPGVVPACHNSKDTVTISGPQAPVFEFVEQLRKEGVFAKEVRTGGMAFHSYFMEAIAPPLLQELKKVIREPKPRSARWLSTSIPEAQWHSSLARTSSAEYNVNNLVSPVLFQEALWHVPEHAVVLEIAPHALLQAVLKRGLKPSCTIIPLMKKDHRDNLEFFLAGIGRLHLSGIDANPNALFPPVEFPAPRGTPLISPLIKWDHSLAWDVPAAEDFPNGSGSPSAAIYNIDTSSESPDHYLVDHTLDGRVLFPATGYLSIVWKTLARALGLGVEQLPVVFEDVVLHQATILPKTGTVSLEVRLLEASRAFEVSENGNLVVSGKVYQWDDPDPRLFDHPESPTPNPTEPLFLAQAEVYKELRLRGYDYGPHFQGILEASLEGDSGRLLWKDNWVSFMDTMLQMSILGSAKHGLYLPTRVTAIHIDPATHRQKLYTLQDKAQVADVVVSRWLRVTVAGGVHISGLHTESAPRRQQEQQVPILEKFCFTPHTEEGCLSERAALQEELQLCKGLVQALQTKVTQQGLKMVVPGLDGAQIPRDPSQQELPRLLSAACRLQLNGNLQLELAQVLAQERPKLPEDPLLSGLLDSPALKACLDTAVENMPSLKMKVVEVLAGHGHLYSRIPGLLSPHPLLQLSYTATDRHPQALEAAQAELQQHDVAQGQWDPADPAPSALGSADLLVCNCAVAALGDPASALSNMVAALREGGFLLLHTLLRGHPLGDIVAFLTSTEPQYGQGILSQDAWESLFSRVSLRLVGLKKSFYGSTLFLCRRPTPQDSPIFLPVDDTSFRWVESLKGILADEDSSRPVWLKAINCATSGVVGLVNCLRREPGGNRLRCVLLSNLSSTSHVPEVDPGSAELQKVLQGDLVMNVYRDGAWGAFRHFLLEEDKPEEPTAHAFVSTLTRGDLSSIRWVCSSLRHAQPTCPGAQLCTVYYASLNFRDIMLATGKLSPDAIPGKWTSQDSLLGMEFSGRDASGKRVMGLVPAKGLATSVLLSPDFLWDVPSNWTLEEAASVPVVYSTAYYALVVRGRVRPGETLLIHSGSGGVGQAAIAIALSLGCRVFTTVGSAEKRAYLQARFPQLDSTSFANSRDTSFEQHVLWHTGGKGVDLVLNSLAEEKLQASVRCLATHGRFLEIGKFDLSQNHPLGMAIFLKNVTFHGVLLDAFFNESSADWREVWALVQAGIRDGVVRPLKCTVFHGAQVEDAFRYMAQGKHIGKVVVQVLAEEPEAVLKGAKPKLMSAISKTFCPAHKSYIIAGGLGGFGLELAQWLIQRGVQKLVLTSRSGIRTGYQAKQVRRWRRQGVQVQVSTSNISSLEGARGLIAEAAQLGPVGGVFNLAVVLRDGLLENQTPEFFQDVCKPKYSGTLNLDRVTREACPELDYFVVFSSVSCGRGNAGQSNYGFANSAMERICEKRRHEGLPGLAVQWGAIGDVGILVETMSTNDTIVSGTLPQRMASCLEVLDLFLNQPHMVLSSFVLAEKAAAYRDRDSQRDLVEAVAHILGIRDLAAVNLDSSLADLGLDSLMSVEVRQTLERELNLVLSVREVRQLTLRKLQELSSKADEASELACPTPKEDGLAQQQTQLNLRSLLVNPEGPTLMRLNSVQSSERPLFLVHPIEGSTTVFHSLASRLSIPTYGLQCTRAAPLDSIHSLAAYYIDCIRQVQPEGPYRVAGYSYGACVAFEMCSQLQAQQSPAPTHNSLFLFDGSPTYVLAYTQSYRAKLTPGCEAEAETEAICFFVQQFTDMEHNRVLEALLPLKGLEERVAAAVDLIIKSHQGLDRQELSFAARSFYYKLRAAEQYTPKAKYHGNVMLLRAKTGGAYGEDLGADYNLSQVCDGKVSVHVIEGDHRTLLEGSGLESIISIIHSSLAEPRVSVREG
Chain of UniProt Q15029 (Q15029 whole entry, looked up): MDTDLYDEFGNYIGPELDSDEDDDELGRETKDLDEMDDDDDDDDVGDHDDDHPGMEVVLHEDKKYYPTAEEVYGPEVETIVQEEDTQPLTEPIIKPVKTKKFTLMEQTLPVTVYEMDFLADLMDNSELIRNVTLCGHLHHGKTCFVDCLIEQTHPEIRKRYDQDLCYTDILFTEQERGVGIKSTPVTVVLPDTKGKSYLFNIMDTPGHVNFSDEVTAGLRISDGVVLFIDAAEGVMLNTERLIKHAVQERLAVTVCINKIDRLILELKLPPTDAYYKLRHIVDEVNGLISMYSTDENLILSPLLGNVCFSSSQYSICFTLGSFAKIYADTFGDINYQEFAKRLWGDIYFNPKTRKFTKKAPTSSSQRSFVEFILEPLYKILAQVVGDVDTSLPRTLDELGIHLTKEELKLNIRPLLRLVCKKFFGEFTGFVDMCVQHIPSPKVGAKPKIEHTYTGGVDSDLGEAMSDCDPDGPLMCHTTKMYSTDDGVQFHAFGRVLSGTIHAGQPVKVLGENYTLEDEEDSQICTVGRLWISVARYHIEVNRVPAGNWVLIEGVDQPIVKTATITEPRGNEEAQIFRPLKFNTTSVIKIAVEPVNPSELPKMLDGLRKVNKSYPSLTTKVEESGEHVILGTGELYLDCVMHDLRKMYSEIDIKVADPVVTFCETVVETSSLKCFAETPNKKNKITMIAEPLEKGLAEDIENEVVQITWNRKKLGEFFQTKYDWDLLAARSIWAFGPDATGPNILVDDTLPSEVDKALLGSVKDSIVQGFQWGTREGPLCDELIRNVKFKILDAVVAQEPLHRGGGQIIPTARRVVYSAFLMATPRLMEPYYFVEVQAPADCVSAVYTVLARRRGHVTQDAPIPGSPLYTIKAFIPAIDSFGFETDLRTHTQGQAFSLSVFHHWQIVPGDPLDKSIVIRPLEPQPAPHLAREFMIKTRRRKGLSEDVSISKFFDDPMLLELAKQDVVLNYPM
Chain of UniProt P34913 (P34913 whole entry, looked up): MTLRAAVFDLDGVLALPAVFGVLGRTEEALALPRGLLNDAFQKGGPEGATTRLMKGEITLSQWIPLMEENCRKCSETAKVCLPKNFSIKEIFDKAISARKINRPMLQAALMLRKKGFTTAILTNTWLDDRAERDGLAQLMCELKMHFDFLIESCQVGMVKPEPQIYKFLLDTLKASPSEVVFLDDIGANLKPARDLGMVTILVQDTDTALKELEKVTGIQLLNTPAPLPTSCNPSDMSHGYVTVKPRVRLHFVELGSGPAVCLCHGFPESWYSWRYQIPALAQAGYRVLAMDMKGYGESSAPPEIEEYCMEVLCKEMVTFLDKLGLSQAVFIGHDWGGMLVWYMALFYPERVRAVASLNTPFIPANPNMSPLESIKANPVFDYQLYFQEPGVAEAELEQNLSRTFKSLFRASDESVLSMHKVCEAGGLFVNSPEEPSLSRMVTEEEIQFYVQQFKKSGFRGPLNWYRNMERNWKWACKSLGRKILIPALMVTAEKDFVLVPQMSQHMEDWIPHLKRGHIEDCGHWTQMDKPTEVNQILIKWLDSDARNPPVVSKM
Chain of UniProt Q15370 (Q15370 whole entry, looked up): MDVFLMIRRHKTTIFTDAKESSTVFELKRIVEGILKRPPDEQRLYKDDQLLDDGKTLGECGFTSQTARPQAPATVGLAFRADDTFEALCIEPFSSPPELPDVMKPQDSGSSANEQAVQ

Row | Target | probe-labelled cysteine peptide fold change
1 | EEF1A1_P68104_234_DGNASGTTLLEALDCILPPTRPTDK (UniProt P68104) | -0.00679
2 | EHHADH_Q08426_623_CLYSLINEAFR (UniProt Q08426) | 0.466
3 | DUS1L_Q6P1R4_146_LSVPVTCK (UniProt Q6P1R4) | 0.115
4 | FARSB_Q9NSD9_418_HDMAAAGFTEALTFALCSQEDIADK (UniProt Q9NSD9) | 0.0214
5 | EIF3B_P55884_515_NLFNVVDCK (UniProt P55884) | 0.059
6 | FBXO3_Q9UK99_324_ACQLDSR (UniProt Q9UK99) | -0.108
7 | ELOB_Q15370_60_TLGECGFTSQTAR (UniProt Q15370) | -0.131
8 | DOCK11_Q5JSL3_1641_NGDFSEAAMCYVHVAALVAEFLHR (UniProt Q5JSL3) | -0.0337
9 | DOP1A_Q5JWR5_2127_EAFDLFMDPSFFQMDASCVNHWR (UniProt Q5JWR5) | -0.115
10 | EFTUD2_Q15029_468+476_IEHTYTGGVDSDLGEAMSDCDPDGPLMCHTTK (UniProt Q15029) | -0.351
11 | DPF2_Q92785_53_LPFLDSQTGVAQSNCYIWMEK (UniProt Q92785) | 0.202
12 | EIF3D_O15371_375_CEHDGVMTGANGEVSFINIK (UniProt O15371) | 0.0105
13 | ERO1A_Q96HE7_85+94_RPCPFWNDISQCGR (UniProt Q96HE7) | -0.0192
14 | FARS2_O95363_413_TSHCYR (UniProt O95363) | 0.0806
15 | EIPR1_Q53HC9_247_QYYLASCGDDCK (UniProt Q53HC9) | -0.161
16 | DUSP3_P51452_124_VLVHCR (UniProt P51452) | -0.0219
17 | FANCA_O15360_69_SHQDLNALLLEVEGPLCK (UniProt O15360) | -0.401
18 | EEF1A1_P68104_411_FLKSGDAAIVDMVPGKPMCVESFSDYPPLGR (UniProt P68104) | 0.219

Row | Target | probe-labelled cysteine peptide fold change
19 | EED_O75530_330_SCENAIVCWKPGK (UniProt O75530) | 0.154
20 | DOCK7_Q96N67_1710_SNHAEAAQCLVHSAALVAEYLSMLEDRK (UniProt Q96N67) | -0.222
21 | FASN_P49327_1459_AINCATSGVVGLVNCLR (UniProt P49327) | -0.0766
22 | EIF2B3_Q9NR50_424_DCLIGSGQR (UniProt Q9NR50) | -0.0396
23 | DYNC1H1_Q14204_2454+2466_CLGSLFSMLHQACR (UniProt Q14204) | 0.117
24 | FAM111A_Q96PZ2_181_ASTECVK (UniProt Q96PZ2) | -0.208
25 | EIF3I_Q13347_120_QMGYQCFVSFFDLRDPSQIDNNEPYMK (UniProt Q13347) | 0.106
26 | ELAC2_Q9BQ52_374_FGPDTQHLVLNENCASVHNLR (UniProt Q9BQ52) | 0.0447
27 | FAHD1_Q6P587_112_DVQDECK (UniProt Q6P587) | -0.0678
28 | EZH2_Q15910_695_FANHSVNPNCYAK (UniProt Q15910) | 0.0117
29 | EPHX2_P34913_314_GYGESSAPPEIEEYCMEVLCK (UniProt P34913) | 0.317
30 | ESCO2_Q56NI9_389_HFGATVCK (UniProt Q56NI9) | 0.0621
31 | EGLN1_Q9GZT9_266_EPGCETIGLLMSSMDDLIR (UniProt Q9GZT9) | 0.298
32 | ECM1_Q16610_269_FSCFQEEAPQPHYQLR (UniProt Q16610) | 0.753
33 | ERGIC3_Q9Y282_145_VEVTVFDPDSLDPDRCESCYGAEAEDIK (UniProt Q9Y282) | 0.46
34 | FAM192A_Q9GZU8_44_KPEDPEECPEEVYDPR (UniProt Q9GZU8) | 0.0522
35 | DOK2_O60496_36_FGASLYGGSDCALAR (UniProt O60496) | 0.0709

Same assay, conditions: 50 µM; THP-1; incubation time: 4 h

Row | Target | probe-labelled cysteine peptide fold change
36 | EEF1A1_P68104_234_DGNASGTTLLEALDCILPPTRPTDK (UniProt P68104) | 0.166
37 | EHHADH_Q08426_623_CLYSLINEAFR (UniProt Q08426) | 0.251
38 | DUS1L_Q6P1R4_146_LSVPVTCK (UniProt Q6P1R4) | -0.154
39 | FARSB_Q9NSD9_418_HDMAAAGFTEALTFALCSQEDIADK (UniProt Q9NSD9) | 0.0396
40 | EIF3B_P55884_515_NLFNVVDCK (UniProt P55884) | 0.139
41 | FBXO3_Q9UK99_324_ACQLDSR (UniProt Q9UK99) | -0.312
42 | ELOB_Q15370_60_TLGECGFTSQTAR (UniProt Q15370) | 0.13
43 | DOCK11_Q5JSL3_1641_NGDFSEAAMCYVHVAALVAEFLHR (UniProt Q5JSL3) | -0.0391
44 | DOP1A_Q5JWR5_2127_EAFDLFMDPSFFQMDASCVNHWR (UniProt Q5JWR5) | -0.0466
45 | EFTUD2_Q15029_468+476_IEHTYTGGVDSDLGEAMSDCDPDGPLMCHTTK (UniProt Q15029) | -0.0991
46 | DPF2_Q92785_53_LPFLDSQTGVAQSNCYIWMEK (UniProt Q92785) | 0.23
47 | EIF3D_O15371_375_CEHDGVMTGANGEVSFINIK (UniProt O15371) | -0.0373
48 | ERO1A_Q96HE7_85+94_RPCPFWNDISQCGR (UniProt Q96HE7) | 0.276
49 | FARS2_O95363_413_TSHCYR (UniProt O95363) | 0.235
50 | EIPR1_Q53HC9_247_QYYLASCGDDCK (UniProt Q53HC9) | -0.568
51 | DUSP3_P51452_124_VLVHCR (UniProt P51452) | -0.0123
52 | FANCA_O15360_69_SHQDLNALLLEVEGPLCK (UniProt O15360) | -0.59
53 | EEF1A1_P68104_411_FLKSGDAAIVDMVPGKPMCVESFSDYPPLGR (UniProt P68104) | 1.06

Row | Target | probe-labelled cysteine peptide fold change
54 | EED_O75530_330_SCENAIVCWKPGK (UniProt O75530) | -0.0247
55 | DOCK7_Q96N67_1710_SNHAEAAQCLVHSAALVAEYLSMLEDRK (UniProt Q96N67) | 0.118
56 | FASN_P49327_1459_AINCATSGVVGLVNCLR (UniProt P49327) | -0.241
57 | EIF2B3_Q9NR50_424_DCLIGSGQR (UniProt Q9NR50) | -0.0614
58 | DYNC1H1_Q14204_2454+2466_CLGSLFSMLHQACR (UniProt Q14204) | 0.0497
59 | FAM111A_Q96PZ2_181_ASTECVK (UniProt Q96PZ2) | 0.147
60 | EIF3I_Q13347_120_QMGYQCFVSFFDLRDPSQIDNNEPYMK (UniProt Q13347) | -0.0857
61 | ELAC2_Q9BQ52_374_FGPDTQHLVLNENCASVHNLR (UniProt Q9BQ52) | -0.106
62 | FAHD1_Q6P587_112_DVQDECK (UniProt Q6P587) | 0.0636
63 | EZH2_Q15910_695_FANHSVNPNCYAK (UniProt Q15910) | -0.0181
64 | EPHX2_P34913_314_GYGESSAPPEIEEYCMEVLCK (UniProt P34913) | 0.146
65 | ESCO2_Q56NI9_389_HFGATVCK (UniProt Q56NI9) | 0.116
66 | EGLN1_Q9GZT9_266_EPGCETIGLLMSSMDDLIR (UniProt Q9GZT9) | 0.274
67 | ECM1_Q16610_269_FSCFQEEAPQPHYQLR (UniProt Q16610) | 1.07
68 | ERGIC3_Q9Y282_145_VEVTVFDPDSLDPDRCESCYGAEAEDIK (UniProt Q9Y282) | 0.61
69 | FAM192A_Q9GZU8_44_KPEDPEECPEEVYDPR (UniProt Q9GZU8) | -0.0432
70 | DOK2_O60496_36_FGASLYGGSDCALAR (UniProt O60496) | -0.165
